According to the RNAGym collection of RNA variant scans (doi:10.1073/pnas.2313332121):
This sample is rich in variants without activity.

B1: TPR 5TU (parent)
chain: GGAUCUUCUCGAUCUAACAAAAAAGACAAAUCUGCCACAAAGCUUGAGAGCAUCUUCGGAUGCAGAGGCGGCAGCCUUCGGUGGCGCGAUAGCGCCAACGUUCUCAACUAUGACACGCAAAACGCGUGCUCCGUUGAAUGGAGUUUAUCAUG

Variants of: B1
Assay: polymerase ribozyme fitness, log enrichment relative to wild type (log ratio); higher = more active; in vitro selection for triplet polymerase activity
Method in brief: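 The heterodimeric triplet polymerase ribozyme's subunits were each mutagenized into PCR-built libraries and transcribed. Every library was selected once, in triplicate, by annealing with a biotinylated primer, the partner subunit and triplets, incubating frozen at −7 °C, gel-excising extended constructs, capturing on streptavidin beads and running RT-PCR. Input and output libraries were Illumina-sequenced, with genotypes kept only at ≥10 input reads and ≥1 read per output. Fitness, from inverse-variance-weighted replicate averages, is the base-2 logarithm of genotype enrichment over wild-type enrichment.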

A3U G68U U78A C79A C85U C108A C114A and A3U G86U C105G G136U cannot be ordered by “polymerase ribozyme fitness (log ratio)” value: ≤ -4.2 for the first, ≤ -4.2 for the second.

A3U G88U and A3U U4G G42A U82G C96A A113C cannot be ordered by “polymerase ribozyme fitness (log ratio)” value: ≤ -4.2 for the first, ≤ -4.2 for the second.

A3U U6A A26G G34A A39U G88U G92A U101G A106U and A3U U7G A37U cannot be ordered by “polymerase ribozyme fitness (log ratio)” value: ≤ -4.2 for the first, ≤ -4.2 for the second.

A3U U7G A49C C85U A142U and A3U U9C A17C A29C C57U A64G A73G G83C A115C A119G cannot be ordered by “polymerase ribozyme fitness (log ratio)” value: ≤ -4.2 for the first, ≤ -4.2 for the second.

A3U U15G C51A G84U U151G and A3U U31G C35U G50C A66C C85U A121G cannot be ordered by “polymerase ribozyme fitness (log ratio)” value: ≤ -4.2 for the first, ≤ -4.2 for the second.

A3U U45G C87U U90G C114G A138U G141C and A3U U53A G84U A138G G152A cannot be ordered by “polymerase ribozyme fitness (log ratio)” value: ≤ -4.2 for the first, ≤ -4.2 for the second.

A3U U55A G62A U90C G94A G140C and A3U U55A G88C C105U A107G G117U G141C cannot be ordered by “polymerase ribozyme fitness (log ratio)” value: ≤ -4.2 for the first, ≤ -4.2 for the second.

Compared with A3U U61G C95U, A3U U82G U104G is higher in “polymerase ribozyme fitness (log ratio)” value: -1.39 for the first, -1.04 for the second.

Compared with U4A, U4A A12C C63U G83U A107C C116U U144A is lower in “polymerase ribozyme fitness (log ratio)” value: -0.014 for the first, ≤ -4.2 for the second.

U4A A12G C35U C38A A47G C57A A66C C75G A137C G141C and U4A A16U A26U A41C C54A C79G C96A U111C cannot be ordered by “polymerase ribozyme fitness (log ratio)” value: ≤ -4.2 for the first, ≤ -4.2 for the second.

Compared with U4A A17C G59C A119G, U4A A17U A20G C36G C43U C76A G81C is lower in “polymerase ribozyme fitness (log ratio)” value: -0.404 for the first, ≤ -4.2 for the second.

Going from U4A A19C A41U U56C G124A G143A to U4A A19U A24U C35A C57G A60C U101G, the “polymerase ribozyme fitness (log ratio)” value falls from -3.84 to ≤ -4.2.

U4A A19U C69U A91U C95G C103U G140C and U4A A21U C38U C85A C87G C103A cannot be ordered by “polymerase ribozyme fitness (log ratio)” value: ≤ -4.2 for the first, ≤ -4.2 for the second.

U4A A22C U31G G67U A97G and U4A A23U C35U G46A G84U C103U U139A cannot be ordered by “polymerase ribozyme fitness (log ratio)” value: ≤ -4.2 for the first, ≤ -4.2 for the second.

U4A A24U U56G U61G A64C G65A A66G G88A C96U C105G and U4A A28U G58A G68A A142G cannot be ordered by “polymerase ribozyme fitness (log ratio)” value: ≤ -4.2 for the first, ≤ -4.2 for the second.

U4A A30G G42U C43G G48A G94A and U4A A30U U55G G65U C76U C96U G141U cannot be ordered by “polymerase ribozyme fitness (log ratio)” value: ≤ -4.2 for the first, ≤ -4.2 for the second.

Compared with U4A A41C G126C, U4A A49G G50C A66C C76G C93U is lower in “polymerase ribozyme fitness (log ratio)” value: -1.9 for the first, ≤ -4.2 for the second.

U4A A60U G86A A107G A122C and U4A C14G A89U U90C G94U C114U G117U G133U cannot be ordered by “polymerase ribozyme fitness (log ratio)” value: ≤ -4.2 for the first, ≤ -4.2 for the second.

U4A C18G G68A G92U and U4A C54A G71C G94A C105U cannot be ordered by “polymerase ribozyme fitness (log ratio)” value: ≤ -4.2 for the first, ≤ -4.2 for the second.

First: U4A C76A G86C A122C
Second: U4A C103A
The “polymerase ribozyme fitness (log ratio)” value of the first is lower: -3.26 for the first, -2.38 for the second.

Going from U4A C132G U139G to U4A G11A A26C A60G G84U G126U C149G, the “polymerase ribozyme fitness (log ratio)” value falls from -3.71 to ≤ -4.2.

U4A G11C A20U A28U G143U U146G and U4A G34U A60G G71C G141C cannot be ordered by “polymerase ribozyme fitness (log ratio)” value: ≤ -4.2 for the first, ≤ -4.2 for the second.

Compared with U4A G50A U82G U134C, U4A G58A C76G G80U C118A is lower in “polymerase ribozyme fitness (log ratio)” value: -2.39 for the first, ≤ -4.2 for the second.

First: U4A G65A C85U A97U
Second: U4A G84A C103A A106U A142C C149U
The “polymerase ribozyme fitness (log ratio)” value of the first is higher: -2.2 for the first, ≤ -4.2 for the second.

U4A U6A C36A G46C A49C C99G A137C U145C and U4A U6G A30G G68A G88C A120U U151A cannot be ordered by “polymerase ribozyme fitness (log ratio)” value: ≤ -4.2 for the first, ≤ -4.2 for the second.

U4A U7A C14U A28G U53G C54A A64U C87A C103U C116A A122G and U4A U9C A22U C76G U78G C93A G136U cannot be ordered by “polymerase ribozyme fitness (log ratio)” value: ≤ -4.2 for the first, ≤ -4.2 for the second.

Going from U4A U9G C85A to U4A U15G C87U, the “polymerase ribozyme fitness (log ratio)” value rises from ≤ -4.2 to 0.183.

U4A U33G C69A C114A C123G U145C and U4A U45A C57U A91C cannot be ordered by “polymerase ribozyme fitness (log ratio)” value: ≤ -4.2 for the first, ≤ -4.2 for the second.

Compared with U4A U45A G74A U78A U90G A98G A122U, U4C is higher in “polymerase ribozyme fitness (log ratio)” value: ≤ -4.2 for the first, 0.371 for the second.

Compared with U4C A12C A64G G80A A91G, U4C A12G U31G G94C A121G is higher in “polymerase ribozyme fitness (log ratio)” value: ≤ -4.2 for the first, -0.0351 for the second.

U4C A12U C14U G25C U82G A89G G92U C96A A137C and U4C A16G C18A A28C A30C C43U U53A C75G A97G C103A A119U U144C cannot be ordered by “polymerase ribozyme fitness (log ratio)” value: ≤ -4.2 for the first, ≤ -4.2 for the second.

U4C A17G C18A C57A G59A G68A C96A A107U A121U C123G and U4C A19U G65A G83U C87A U127A cannot be ordered by “polymerase ribozyme fitness (log ratio)” value: ≤ -4.2 for the first, ≤ -4.2 for the second.

U4C A20C A150G U151A and U4C A20C U53A G68A C79U U82G A91U G117U cannot be ordered by “polymerase ribozyme fitness (log ratio)” value: ≤ -4.2 for the first, ≤ -4.2 for the second.

Compared with U4C A20U C85A A110G U135C G136U G143C, U4C A21U C57G A60G C85A A89C G94A is higher in “polymerase ribozyme fitness (log ratio)” value: ≤ -4.2 for the first, -2.06 for the second.

U4C A22U A37U A49C G100U and U4C A23G C85U A98U G117A A119U G141U cannot be ordered by “polymerase ribozyme fitness (log ratio)” value: ≤ -4.2 for the first, ≤ -4.2 for the second.

U4C A26U U55A G88A C116A and U4C A30U A73U C105G U144A cannot be ordered by “polymerase ribozyme fitness (log ratio)” value: ≤ -4.2 for the first, ≤ -4.2 for the second.

U4C A40G G84U C96U U151A and U4C A47U C85U C105A C116G G143A A147U cannot be ordered by “polymerase ribozyme fitness (log ratio)” value: ≤ -4.2 for the first, ≤ -4.2 for the second.

U4C A52C G68U G88C U104A A107G and U4C C5A A24G A28C C54U G84U A138C cannot be ordered by “polymerase ribozyme fitness (log ratio)” value: ≤ -4.2 for the first, ≤ -4.2 for the second.

Going from U4C C5A C10U U33A G88C C116U G140A to U4C C5G A20U, the “polymerase ribozyme fitness (log ratio)” value rises from ≤ -4.2 to -1.25.

U4C C5U A12C G25C A40U G58C G133U and U4C C5U A20C C87A A98C G133U U148G cannot be ordered by “polymerase ribozyme fitness (log ratio)” value: ≤ -4.2 for the first, ≤ -4.2 for the second.

U4C C8A A39G U55A G88U C93U U102G and U4C C8U A24U C27A A29U C79A G86A U109A U127A cannot be ordered by “polymerase ribozyme fitness (log ratio)” value: ≤ -4.2 for the first, ≤ -4.2 for the second.

For U4C C10G A26G C27G G81U G88U C93U A115G U139G G141U A142C U145C, the “polymerase ribozyme fitness (log ratio)” value was ≤ -4.2.
